The other results are listed elsewhere or left out.
Tests used:
Experiment in all cases: glycan array binding signal (z-score within array); higher = stronger binding
Settings in all cases: glycan notation: IUPAC condensed, linker removed
[1] = target: Fuc(a1-2)Gal
How it was run: (§1)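 The Consortium for Functional Glycomics database supplied 3228 glycan arrays, of which those lacking an available protein sequence were dropped. The binding signal, a within-array Z-score, was averaged across arrays of the same protein sequence and across linkers. Negative scores can be read as non-binding.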

[2] = target: Fuc(a1-2)Gal(b1-3)GalNAc
How it was run: as §1

[3] = target: Fuc(a1-2)Gal(b1-3)GalNAc(a1-3)[Fuc(a1-2)]Gal(b1-4)Glc
How it was run: as §1

[4] = target: Fuc(a1-2)Gal(b1-3)GalNAc(a1-3)[Fuc(a1-2)]Gal(b1-4)GlcNAc
How it was run: as §1

[5] = target: Fuc(a1-2)Gal(b1-3)GalNAc(b1-3)Gal
How it was run: as §1

[6] = target: Fuc(a1-2)Gal(b1-3)GalNAc(b1-3)Gal(a1-4)Gal(b1-4)Glc
How it was run: as §1

[7] = target: Fuc(a1-2)Gal(b1-3)GalNAc(b1-4)[Neu5Ac(a2-3)]Gal(b1-4)Glc
How it was run: as §1

[8] = target: Fuc(a1-2)Gal(b1-3)GlcNAc
How it was run: as §1

[9] = target: Fuc(a1-2)Gal(b1-3)GlcNAc(b1-2)Man(a1-3)[Fuc(a1-2)Gal(b1-3)GlcNAc(b1-2)Man(a1-6)]Man(b1-4)GlcNAc(b1-4)GlcNAc
How it was run: as §1

[10] = target: Fuc(a1-2)Gal(b1-3)GlcNAc(b1-3)Gal(b1-4)Glc
How it was run: as §1

[11] = target: Fuc(a1-2)Gal(b1-3)GlcNAc(b1-3)[Fuc(a1-3)[Gal(b1-4)]GlcNAc(b1-6)]Gal(b1-4)Glc
How it was run: as §1

[12] = target: Fuc(a1-2)Gal(b1-3)[Fuc(a1-4)]GlcNAc
How it was run: as §1

[13] = target: Fuc(a1-2)Gal(b1-3)[Fuc(a1-4)]GlcNAc(b1-2)Man(a1-3)[Fuc(a1-2)Gal(b1-3)[Fuc(a1-4)]GlcNAc(b1-2)Man(a1-6)]Man(b1-4)GlcNAc(b1-4)GlcNAc
How it was run: as §1

[14] = target: Fuc(a1-2)Gal(b1-3)[Fuc(a1-4)]GlcNAc(b1-3)[Fuc(a1-3)[Gal(b1-4)]GlcNAc(b1-6)]Gal(b1-4)Glc
How it was run: as §1

[15] = target: Fuc(a1-2)Gal(b1-3)[Fuc(a1-4)]GlcNAc(b1-3)[Gal(b1-4)GlcNAc(b1-6)]Gal(b1-4)Glc
How it was run: as §1

[16] = target: Fuc(a1-2)Gal(b1-4)Glc
How it was run: as §1

[17] = target: Fuc(a1-2)Gal(b1-4)Glc6S
How it was run: as §1

[18] = target: Fuc(a1-2)Gal(b1-4)GlcNAc
How it was run: as §1

[19] = target: Fuc(a1-2)Gal(b1-4)GlcNAc(b1-2)Man(a1-3)[Fuc(a1-2)Gal(b1-4)GlcNAc(b1-2)Man(a1-6)]Man(b1-4)GlcNAc(b1-4)GlcNAc
How it was run: as §1

[20] = target: Fuc(a1-2)Gal(b1-4)GlcNAc(b1-3)Gal(b1-4)GlcNAc
How it was run: as §1

[21] = target: Fuc(a1-2)Gal(b1-4)GlcNAc(b1-3)Gal(b1-4)GlcNAc(b1-3)Gal(b1-4)GlcNAc
How it was run: as §1

[22] = target: Fuc(a1-2)Gal(b1-4)GlcNAc(b1-3)GalNAc
How it was run: as §1

[23] = target: Fuc(a1-2)Gal(b1-4)GlcNAc6S
How it was run: as §1

[24] = target: Fuc(a1-2)Gal(b1-4)[Fuc(a1-3)]GlcNAc
How it was run: as §1

[25] = target: Fuc(a1-2)Gal(b1-4)[Fuc(a1-3)]GlcNAc(b1-2)Man(a1-3)[Fuc(a1-2)Gal(b1-4)[Fuc(a1-3)]GlcNAc(b1-2)Man(a1-6)]Man(b1-4)GlcNAc(b1-4)GlcNAc
How it was run: as §1

[26] = target: Fuc(a1-2)Gal(b1-4)[Fuc(a1-3)]GlcNAc(b1-3)Gal(b1-4)[Fuc(a1-3)]GlcNAc
How it was run: as §1

[27] = target: Fuc(a1-2)Gal(b1-4)[Fuc(a1-3)]GlcNAc(b1-3)Gal(b1-4)[Fuc(a1-3)]GlcNAc(b1-3)Gal(b1-4)[Fuc(a1-3)]GlcNAc
How it was run: as §1

[28] = target: Fuc(a1-2)Gal6S(b1-4)Glc
How it was run: as §1

[29] = target: Fuc(a1-2)Gal6S(b1-4)Glc6S
How it was run: as §1

[30] = target: Fuc(a1-2)Gal6S(b1-4)GlcNAc
How it was run: as §1

B1: SSL (Salmo salar) (protein)
chain: TGAKGAEEGVVPAETRNQCPTGWFQFGSRCFMFVETARSWPLAERHCVSLGANLASVHSSADDQFLQAIAGCKTGAFSTTWIGGFDAVQDRLWFWSDGSEFDYQNWAKGEPNNSGGREPCIVINWGDEYRWNDIKCGNSFPSVCSKRICEIQKN
[1]
  glycan array binding signal (z-score): -0.16
[2]
  glycan array binding signal (z-score): -0.155
[3]
  glycan array binding signal (z-score): -0.152
[4]
  glycan array binding signal (z-score): -0.17
[5]
  glycan array binding signal (z-score): -0.178
[6]
  glycan array binding signal (z-score): -0.176
[7]
  glycan array binding signal (z-score): -0.174
[8]
  glycan array binding signal (z-score): -0.164
[9]
  glycan array binding signal (z-score): -0.127
[10]
  glycan array binding signal (z-score): -0.096
[11]
  glycan array binding signal (z-score): -0.183
[12]
  glycan array binding signal (z-score): -0.15
[13]
  glycan array binding signal (z-score): -0.048
[14]
  glycan array binding signal (z-score): -0.178
[15]
  glycan array binding signal (z-score): -0.177
[16]
  glycan array binding signal (z-score): -0.152
[17]
  glycan array binding signal (z-score): -0.137
[18]
  glycan array binding signal (z-score): -0.168
[19]
  glycan array binding signal (z-score): -0.162
[20]
  glycan array binding signal (z-score): -0.179
[21]
  glycan array binding signal (z-score): -0.178
[22]
  glycan array binding signal (z-score): -0.142
[23]
  glycan array binding signal (z-score): -0.167
[24]
  glycan array binding signal (z-score): -0.154
[25]
  glycan array binding signal (z-score): -0.156
[26]
  glycan array binding signal (z-score): -0.172
[27]
  glycan array binding signal (z-score): -0.167
[28]
  glycan array binding signal (z-score): -0.117
[29]
  glycan array binding signal (z-score): -0.149
[30]
  glycan array binding signal (z-score): -0.148
